# Source: PubChem BioAssay AID2675 (National Center for Advancing Translational Sciences (NCATS), 2010)
# “And” between values parts separate entries of the source, which are not always exact repeats. Equal values may be shown once. Among all 280,000 compounds or so, about 100 (0.036%) were called active. The inconclusive results got no clear call from the source; some entries with a clear call stand among them for comparison. Calls come from the whole dose curve; as a rule, active = well fitted inhibition curve with a large enough effect in the signal ratio, with a control signal flat (not every such curve was filed as active); inconclusive = small, poorly fitted or top-dose-only effect, or effect the other way, or a change in a side signal; inactive = no such curve, though single readings can be large or run the other way; the % refers to the signal ratio. Potencies of inconclusive entries are doubtful fits and often do not repeat. A note “side channel” means that the fit belongs to a control or component signal, not to the main read-out.
# Molecular target: Muscleblind-like protein 1 (Homo sapiens) (UniProt Q9NR56)
# UniProt Q9NR56, sequence (Q9NR56 whole entry, looked up): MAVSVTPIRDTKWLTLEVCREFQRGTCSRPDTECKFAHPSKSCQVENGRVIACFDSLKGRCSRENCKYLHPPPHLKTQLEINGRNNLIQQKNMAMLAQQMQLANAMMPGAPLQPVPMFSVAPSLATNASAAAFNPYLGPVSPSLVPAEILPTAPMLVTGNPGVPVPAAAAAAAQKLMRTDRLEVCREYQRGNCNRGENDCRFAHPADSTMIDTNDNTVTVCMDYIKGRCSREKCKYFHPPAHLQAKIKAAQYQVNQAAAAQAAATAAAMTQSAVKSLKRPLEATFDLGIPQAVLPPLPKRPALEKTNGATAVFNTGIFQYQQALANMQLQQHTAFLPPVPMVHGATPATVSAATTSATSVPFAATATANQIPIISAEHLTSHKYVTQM
# Assay: qHTS Assay for Inhibitors of MBNL1-poly(CUG) RNA binding
# Details: TR-FRET MBNL1-His/biotin-(CUG)12 binding, 665/545 ratio; activity change, negative = inhibition: at 57.5 µM (top of the series)
# Procedure, shortened: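 Compounds (final 92 nM to 58 uM) are added to His-tagged MBNL1 and biotin-(CUG)12, then terbium anti-His antibody and streptavidin-XL665 (5 nM final). After 60 min at room temperature, the 665/545 nm ratio is read.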
# % is set by controls: 0 for no effect and ±100 for the full control effect; potency is the fitted concentration of half-maximal effect; tags give direction and shape of the fitted curve or compound fluorescence and quenching.
SMILES,"activity change, negative = inhibition",Potency
Cc1nn2c(nc(N3CCCCC3)c3ccccc32)c1C=O,inactive: -5.81%,–
O/N=C1\CCc2cc(Cl)ccc21,inactive: -13.2%,–
CCCC(=O)NC(c1ccc(OC)c(OC)c1)c1cc(Cl)c2cccnc2c1O (stereo not drawn),inactive: 7.1%,–
Cc1cc(NS(=O)(=O)c2ccc(NC(=O)Nc3cccc(Cl)c3)cc2)no1,inactive: -9.3%,–
C=CCN1C=C2C(=O)C(C)(OC(=O)C3CCCC3)C(=O)C=C2C=C1c1ccsc1 (stereo not drawn),–,"inconclusive: 28.2 µM [quencher, side channel, partial curve]"
Cc1ccc(C(=O)Nc2nnc(CC(=O)N/N=C/c3ccc(O)c(O)c3)s2)cc1,inactive: 0.846%,–
CCCC(=O)C1=C(c2ccccc2)C(C#N)(C#N)C(C#N)=C1N,–,"inconclusive: 31.6 µM [quencher, side channel, single point]"
CC/C(C)=N\NC(=O)CNC(=O)c1ccc(Cl)cc1Cl,inactive: -1.14%,–
O=C1C=C(O)c2c(O)cccc2C1=O,–,"inconclusive: 5.01 µM [quencher, side channel, partial curve]"
O=[N+]([O-])c1ccccc1CSc1nnc2ccccn12,–,"inconclusive: 15.8 µM [quencher, side channel, partial curve]"
O=C(CC1Nc2ccccc2NC1=O)NCC1COc2ccccc2O1 (stereo not drawn),–,"inconclusive: 20 µM [quencher, side channel, single point]"
Cc1ccccc1OCC(=O)Nc1ccc2c(c1)C(=O)N(CCC(=O)O)C2=O,–,"inconclusive: 35.5 µM [quencher, side channel, single point]"
Brc1cc2[nH]cnc2c2ccccc12,–,"inconclusive: 28.2 µM [fluorescent, side channel, partial curve]"
CCCn1c2ccccc2c2nnc(SCc3[nH]c(=O)[nH]c3C(=O)CCCCC(=O)OCC)nc21,–,"inconclusive: 17.8 µM [quencher, side channel, partial curve]"
CC(=O)c1ccc(N2CCN(S(=O)(=O)c3ccc4c5c3CC(=O)N5CC(C)S4)CC2)cc1 (stereo not drawn),inactive: 4.77%,–
O=[N+]([O-])c1ccc2nc(-c3ccccc3)oc2c1,–,"inconclusive: 10 µM [quencher, side channel, partial curve]"
Cn1c(O)c(/C=C2\C=Nc3ccccc32)sc1=Nc1ccc(C(=O)O)cc1,inactive: 10.1%,–
CCOC(=O)/C(=C\c1cccnc1)C(=O)c1cc(C(C)=O)c(Nc2ccccc2)s1,–,"inconclusive: 17.8 µM [quencher, side channel, partial curve]"
O=C(NC(=S)Nc1ccccc1N1CCCC1)c1ccccc1[N+](=O)[O-],inactive: -13.5%,–
O=C(Nc1cccc2nsnc12)c1cccs1,–,"inconclusive: 14.1 µM [quencher, side channel, partial curve] and inconclusive: 6.31 µM [quencher, side channel, partial curve]"

SMILES,"activity change, negative = inhibition",Potency
COc1ccccc1CNC(=S)NCCc1ccccc1,inactive: -7.45%,–
c1cnc2c(OCc3cn4cccnc4n3)cccc2c1,–,"inconclusive: 22.4 µM [quencher, single point]"
COc1cc2cc(Oc3ccc4ccc(=O)oc4c3)c(=O)oc2cc1OC1OC(COC(=O)CC(C)(O)CC(=O)O)C(O)C(O)C1O (stereo not drawn),–,"inconclusive: 20 µM [quencher, side channel, partial curve]"
COc1cccc2cc(-c3nc4ccccc4o3)c(=O)oc12,–,"inconclusive: 1.26 µM [quencher, side channel, full curve]"
O=C(C1=C[C@@H]2[C@H]3C(=O)N(c4ccccc4Cl)C(=O)[C@H]3[C@@H](C(=O)c3ccc(Cl)cc3)N2C=C1)c1ccccc1,–,"inconclusive: 20 µM [quencher, side channel, single point]"
O=C(/C=C/c1ccc(O)c(O)c1)NC(=O)c1ccccc1O,–,"inconclusive: 17.8 µM [quencher, side channel, partial curve]"
NC(=O)CC[C@@H]1NC(=O)[C@H](CO)NC(=O)c2cc([N+](=O)[O-])cc(I)c2NCCC[C@@H](C(N)=O)NC(=O)[C@H](Cc2ccc(O)cc2)NC1=O,–,"inconclusive: 8.91 µM [quencher, side channel, full curve]"
CCN(CC)c1ccc(N=Cc2ccccc2[N+](=O)[O-])cc1,inactive: 11.4% [at 11.5 µM],–
CCOc1ccc(C(=O)NC(=S)Nc2cc(C)ccn2)cc1[N+](=O)[O-],–,"inconclusive: 28.2 µM [quencher, side channel, partial curve]"
CC(=O)C1=C(O)C(=O)N(c2ccc(S(=O)(=O)Nc3nccs3)cc2)C1c1ccc([N+](=O)[O-])cc1 (stereo not drawn),–,"inconclusive: 25.1 µM [quencher, side channel, partial curve]"
Cc1cccc(NC2=C(NCCO)C(=O)c3ccccc3C2=O)c1,–,"inconclusive: 14.1 µM [quencher, side channel, partial curve]"
Cc1cccc(NC(=O)CN2C(=O)S/C(=C\c3ccc(O)c([N+](=O)[O-])c3)C2=O)c1,–,"inconclusive: 28.2 µM [quencher, single point]"
CCN(c1ccc(NC(=O)c2cccc(S(=O)(=O)N3CCN(C)CC3)c2)cc1)C(C)C,–,"inconclusive: 15.8 µM [quencher, side channel, partial curve]"
Cc1cccc(OCCCSc2nc3ccc(C)cc3[nH]2)c1,–,"inconclusive: 7.08 µM [quencher, side channel, single point]"
COc1ccc(/C=C(\NC(=O)/C=C/c2ccco2)C(=O)NCCc2nc3ccccc3[nH]2)cc1,–,"inconclusive: 28.2 µM [quencher, side channel, single point]"
Cc1ccc(S(=O)(=O)N2CCCCC2)cc1NC(=O)COC(=O)CNC(=O)c1cc(Cl)cc([N+](=O)[O-])c1,–,"inconclusive: 11.2 µM [quencher, side channel, partial curve]"
COc1ccc(-n2c(N)c(C(=O)NCc3cccnc3)sc2=S)cc1,–,"inconclusive: 2.51 µM [quencher, side channel, full curve, poor fit]"
CCCCn1c(SCC(=O)Nc2cc(C)on2)nc2ccccc2c1=O,–,"inconclusive: 3.55 µM [fluorescent, side channel, partial curve]"
CC1(C)N=c2ccc([N+](=O)[O-])c(N)c2=[N+]1[O-],–,"inconclusive: 11.2 µM [quencher, side channel, partial curve]"
CCOC(=O)CNC(=O)CSc1nnc(NC(=O)c2ccc(C)cc2)s1,inactive: 6.29%,–

SMILES,"activity change, negative = inhibition",Potency
CC(=O)Nc1ccc(S(=O)(=O)Nc2cccc(-c3ccc4nncn4n3)c2)cc1,–,"inconclusive: 35.5 µM [quencher, side channel, partial curve]"
COc1ccc(S(=O)(=O)NCCc2cc3ccc(C)c(C)c3[nH]c2=O)cc1,–,"inconclusive: 39.8 µM [fluorescent, side channel, single point]"
NC(=S)N/N=C/c1ccc(-c2cccc([N+](=O)[O-])c2)o1,–,"inconclusive: 12.6 µM [quencher, side channel, partial curve]"
CSC(=S)N/N=C/c1ccc(Br)cc1,inactive: -1.9%,–
CCCNCC(O)Cn1c2ccccc2n2c(=O)cc(C)c(C#N)c12 (stereo not drawn),–,"inconclusive: 35.5 µM [fluorescent, side channel, partial curve]"
CCCCNC(=S)N=Nc1c(O)[nH]c2ccccc12,–,"inconclusive: 28.2 µM [quencher, side channel, partial curve]"
COC/C=C/C1=CC2=CC(=O)C(C)(OC(=O)c3cnc4ccccc4n3)C(=O)C2=CN1c1ccccc1 (stereo not drawn),–,"inconclusive: 28.2 µM [quencher, side channel, partial curve]"
Nc1ccc(-n2cnc3cc([N+](=O)[O-])ccc32)cc1,–,"inconclusive: 14.1 µM [quencher, side channel, partial curve]"
Cc1ccc(S(=O)(=O)NCCCN2CCOCC2)cc1C,–,"inconclusive: 1.78 µM [fluorescent, side channel, full curve, poor fit]"
O=C(NN1C(=O)c2ccccc2C1=O)c1ccc2c(c1)C(=O)N(CC1CCCO1)C2=O (stereo not drawn),–,"inconclusive: 25.1 µM [quencher, side channel, partial curve]"
Nc1cccc(-c2nc3ccccc3[nH]2)c1,inactive: -0.241%,–
CCO/C(C)=N/n1c2nc3ccccc3nc2c2c(=O)n(Cc3ccccc3Cl)c(C)nc21,–,"inconclusive: 31.6 µM [quencher, single point]"
O=C(NCCc1ccc(Cl)cc1)C1CCN(S(=O)(=O)c2cccc3nonc23)CC1,–,"inconclusive: 2.82 µM [quencher, side channel, full curve]"
COc1ccc(C2CC(=O)C3=C(C2)NC(C)=C(C#N)C3c2ccc(N(C)C)cc2)cc1 (stereo not drawn),–,"inconclusive: 14.1 µM [quencher, side channel, partial curve]"
C=CCc1cccc2cc(C(=O)NC)c(=O)oc12,–,"inconclusive: 31.6 µM [quencher, side channel, partial curve]"
O=C(c1ccccc1F)c1cc2c(cc1[N+](=O)[O-])OCCO2,–,"inconclusive: 10 µM [quencher, side channel, partial curve]"
Cc1ccc(-c2sc(-c3ccccc3)nc2CC(=O)Nc2ccccc2F)cc1,inactive: -4.22%,–
O=C1OC(c2ccccc2)=C/C1=C/c1cccs1,–,"inconclusive: 39.8 µM [quencher, side channel, single point]"
